According to PubChem BioAssay AID602340 (Broad Institute, 2012):
Screen size: about 330,000 compounds; about 2,600 (0.79%) were called active. The inconclusive results got no clear call from the source; some entries with a clear call stand among them for comparison.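 The calls were made as follows: active = mean ATP rescue above about 67%, or every replicate alone reaching that limit (limit read from the data, passing the limit was not always enough); inconclusive = no clear call, values can overlap the other calls; inactive = mean under the limit and some replicate under it.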

Assay: suppressors of statin myotoxicity in C2C12 myotubes, primary screen, cell-based, single point, plate reader (AID 602340);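 also: myotubes were challenged with 10 µM simvastatin during compound exposure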
Conditions: C2C12 myotubes + simvastatin, ATP luminescence, 48 h; at 7.49 µM; stronger effect = higher value; scaled: DMSO 0, geranylgeraniol control 100

Row | Structure (SMILES) | rescue of ATP level
1 | O=C(NCCN1CCOCC1)c1ccc2c(c1)N(Cc1cccc(F)c1)C(=O)c1ccccc1S2 | inactive: -8.47%
2 | C[C@@H]1CN([C@H](C)CO)C(=O)c2cc(C#CCN(C)C)cnc2O[C@H]1CN(C)Cc1ccccn1 | inactive: 0.563%
3 | CCc1nnc(NC(=O)c2oc3ccccc3c2COC(C)C)s1 | inactive: -1%
4 | CCOc1ccc(-c2c(C)n([O-])c3c([n+]2=O)CCCCC3)cc1 | inconclusive: 12.4%
5 | OC(c1cc(-c2ccc(Cl)cc2)nc2ccccc12)C1CCCCN1 (stereo not drawn) | inconclusive: 14.2%
6 | C[C@@H]1CCCCO[C@@H](CN(C)S(=O)(=O)c2cccs2)[C@@H](C)CN([C@H](C)CO)C(=O)c2cc(NC(=O)Nc3cccc4ccccc34)ccc2O1 | inactive: -10.8%
7 | CCOC(=O)NC(=O)/C(N=Nc1ccc(C(F)(F)F)cc1)=C(\C)O | active: 98.8%
8 | COc1ccc(N2CCN(C3CCCN(Cc4ccc(F)c(F)c4)C3)CC2)cc1 (stereo not drawn) | inactive: 11.9%
9 | CCC1CN(C(=O)NCc2ccc(F)cc2)c2cc(Cl)ccc2O1 (stereo not drawn) | inconclusive: 0.808%
10 | C[C@@H]1CN([C@@H](C)CO)C(=O)c2cccc(NS(=O)(=O)c3cccs3)c2O[C@@H]1CN(C)S(=O)(=O)c1ccc(Cl)cc1 | inconclusive: 73.4%
11 | Cc1ccc(-c2nc3ccccc3[nH]2)cc1NC(=O)c1ccco1 | active: 116%
12 | COCCNC(=O)Nc1ccc2nc(-c3cccs3)c(-c3cccs3)nc2c1 | active: 125%
13 | C[C@H](CO)N1C[C@H](C)[C@H](CN(C)C(=O)Nc2cccc3ccccc23)Oc2ccc(NC(=O)Nc3ccc(C(F)(F)F)cc3)cc2CC1=O | inconclusive: 66.7%
14 | O=C(Nc1nc(OCCN2CCCC2=O)cnc1/C=C\c1ccccc1)c1cc2ccccc2s1 | inconclusive: 67.7%
15 | COc1ccccc1S(=O)(=O)N1CC[C@H]2[C@H](CO)Nc3ccc(-c4ccccc4F)cc3[C@H]21 | inactive: -8.82%
16 | Cc1ccccc1OCCn1cc(/C=C(\C#N)C(=O)NCc2ccco2)c2ccccc21 | inactive: -23.8%
17 | Cc1occc1-c1nnc(SCC(=O)Nc2nc(-c3ccccc3)cs2)o1 | inactive: 13.1%
18 | CCOc1ccc(N(CC)C(=O)Cc2c(C(=O)O)n(C)c3ccccc23)cc1 | inconclusive: 16.8%
19 | CCN(Cc1cc(=O)n2ccsc2n1)Cc1nc2cc(OC)c(OC)cc2c(=O)[nH]1 | inconclusive: 10.2%
20 | C[C@H]1CN([C@@H](C)CO)C(=O)CCCn2nncc2CO[C@H]1CN(C)CC1CCCCC1 | inactive: -1.65%
21 | Cc1cccc2cc(/C=N/NC(=O)CN3CCOCC3)c(Cl)nc12 | inconclusive: 78.5%
22 | C[C@@H]1CCCCO[C@@H](CN(C)C(=O)Nc2cccc3ccccc23)[C@@H](C)CN([C@H](C)CO)C(=O)c2cc(NS(=O)(=O)c3ccc(Cl)cc3)ccc2O1 | active: 94.4%
23 | COC1CCN(C(=O)c2cc(COc3cc(C)ccc3C)on2)CC1 | inactive: -14.9%
24 | CCSc1nc(C2CC2)cc(-c2ccco2)c1C#N | active: 99.8%
25 | Cc1cccc(-c2cc3c(nn2)-c2ccccc2C3=O)c1 | inconclusive: 77.3%

Row | Structure (SMILES) | rescue of ATP level
26 | CCOc1cc(C2CC(=O)c3c(ccc4ccccc34)N2)ccc1O (stereo not drawn) | inconclusive: 67.7%
27 | Cc1noc(C)c1NC(=O)Nc1ccc2c(c1)C(=O)N([C@@H](C)CO)C[C@@H](C)[C@@H](CN(C)S(=O)(=O)c1c(C)noc1C)OCCCC[C@@H](C)O2 | inconclusive: 66.9%
28 | c1ccc(-c2nc(-c3ccco3)cs2)nc1 | inconclusive: 69.5%
29 | O=C(NCc1ccccn1)C1CCCN(S(=O)(=O)c2cc(Cl)ccc2Cl)C1 (stereo not drawn) | inconclusive: 69.6%
30 | C[C@H](CO)N1C[C@H](C)[C@@H](CN(C)Cc2ccc(-c3ccccc3)cc2)Oc2ccc(NC(=O)c3ccncc3)cc2CC1=O | active: 124%
31 | CCCCOc1ccc(Br)cc1/C(C)=N/NC1=NCCN1 | inconclusive: 76.8%
32 | Cc1nnc(SCC(=O)N2CCc3ccccc32)n1-c1ccccc1 | inconclusive: 70.1%
33 | COC(=O)CCC(=O)Nc1cccc(C(=O)Nc2cccc(Cl)c2)c1 | inconclusive: 67.7%
34 | CCCc1ccc(-c2c(C)sc(NC(=O)c3ccnn3C)c2C#N)cc1 | inconclusive: 69.9%
35 | C[C@H](CO)N1C[C@H](C)[C@H](CN(C)S(=O)(=O)c2cccs2)OCCCC[C@H](C)Oc2ccc(NC(=O)Nc3ccc(F)cc3)cc2C1=O | inconclusive: 121%
36 | C[C@@H]1CN([C@@H](C)CO)C(=O)c2cccc(NC(=O)NC3CCCCC3)c2O[C@@H]1CN(C)C(=O)Nc1ccc(F)cc1 | inactive: -7.93%
37 | C[C@@H]1CN([C@H](C)CO)C(=O)c2cc(NC(=O)NC3CCCCC3)ccc2O[C@H]1CN(C)Cc1ccccc1 | inactive: -21.5%
38 | CC(C)C[C@@H](CN)NC(=O)c1nc[nH]c1C(=O)N[C@@H](Cc1ccccc1)C(=O)CNC[C@H](C)NC(=O)c1nc[nH]c1C(=O)N[C@@H](C)C(=O)O | inactive: -0.671%
39 | O=C1c2ccccc2C(=O)C1c1ccncc1 | inconclusive: 82.3%
40 | CCOc1ccc(C2SCC(=O)N2c2c(C)n(C)n(-c3ccccc3)c2=O)cc1 (stereo not drawn) | active: 117%
41 | CC(C)CCNC(=O)CN(Cc1ccco1)C(=O)CCC(=O)Nc1nccs1 | inconclusive: 71.5%
42 | COc1ccc(NC(=O)NNC(=O)c2ccc(Cl)cc2Cl)cc1OC | inactive: -4.34%
43 | COc1ccc(/C=C(/NC(=O)c2ccccc2)C(=O)N2CCCCC2)cc1OC | inconclusive: 80.2%
44 | C[C@H](CO)N1C[C@H](C)[C@H](CN(C)C(=O)Nc2ccc3c(c2)OCO3)OCCCC[C@H](C)Oc2ccc(NS(=O)(=O)c3ccc(F)cc3)cc2C1=O | active: 80.6%
45 | C[C@@H]1CN([C@@H](C)CO)C(=O)c2cc(-c3cccc(F)c3)cnc2O[C@H]1CN(C)C(=O)Nc1cc(F)ccc1F | inactive: -8.98%
46 | COc1cccc(C(=O)Nc2nc3c(c(=O)[nH]2)CCCC3)c1 | active: 95.8%
47 | COc1ccc(C(=O)NC(C)CCc2ccccc2)c(O)c1 (stereo not drawn) | inconclusive: 6.08%
48 | C=CCN=C1SC(C)C(=O)N1S(=O)(=O)c1ccccc1 (stereo not drawn) | active: 109%
49 | COc1ccc(S(=O)(=O)Nc2ccc3c(c2)CC(=O)N([C@@H](C)CO)C[C@H](C)[C@@H](CN(C)Cc2ccc(C(F)(F)F)cc2)O3)cc1 | inconclusive: 66.2%
50 | CC(=O)Oc1ccc(N2C(=O)c3cccc4c([N+](=O)[O-])ccc(c34)C2=O)cc1 | inconclusive: 75.1%

Row | Structure (SMILES) | rescue of ATP level
51 | COc1ccc(C(=O)CSc2nnnn2Cc2ccccc2)cc1 | inconclusive: 69.3%
52 | Cc1ccc(O)c(NC(=S)NC(=O)C(C)C)c1 | inconclusive: 69.6%
53 | O=C(CN1CCOCC1)NCC[C@H]1CC[C@@H](NC(=O)Nc2ccc(F)cc2)[C@@H](CO)O1 | inactive: 4.94%
54 | COc1cccc(S(=O)(=O)N(C)C[C@@H]2Oc3ncc(C#CCN(C)C)cc3C(=O)N([C@@H](C)CO)C[C@@H]2C)c1 | inactive: -8%
55 | Cc1noc(C)c1S(=O)(=O)Nc1ccc2c(c1)CC(=O)N([C@@H](C)CO)C[C@@H](C)[C@H](CN(C)Cc1ccc(-c3ccccc3)cc1)O2 | inconclusive: 66.6%
56 | COc1ccc(CNC(=O)/C=C/c2cc([N+](=O)[O-])ccc2OC(F)F)cc1OC | inconclusive: 76.1%
57 | Cn1c(CNC(=O)c2ccc3c(c2)OCO3)nnc1SCC(=O)Nc1ccc(F)cc1 | inconclusive: 66%
58 | COc1ccc(CN2C[C@@H](CO)O[C@@H](n3cnc4c(NCc5ccc(F)cc5)ncnc43)C2)cc1 | active: 81.3%
59 | CCN(C(=O)c1c(OC)cccc1OC)c1nnc(-c2cccnc2)s1 | inconclusive: 72.1%
60 | C[C@@H]1CCCCO[C@@H](CN(C)S(=O)(=O)c2ccc(F)cc2)[C@@H](C)CN([C@H](C)CO)C(=O)c2cc(NC(=O)Nc3cccc4ccccc34)ccc2O1 | inconclusive: 96.5%
61 | COc1ccccc1Cc1c(-c2ccc(OC)c(OC)c2)nc2ccc(Br)cn12 | inactive: -56.9%
62 | CC1CC(C)CN(CCCNC(=O)c2ccc3c(c2)NC(=O)C(N2CCCCC2)S3)C1 (stereo not drawn) | active: 107%
63 | CCNC(=O)Nc1ccc2c(c1)C(=O)N(C)[C@H]1CC[C@@H](CC(=O)Nc3ccccc3)O[C@H]1CO2 | inactive: -30.8%
64 | O=C(c1cc(Br)c(Br)s1)N1CCc2ccccc2C1 | inactive: 13.6%
65 | COc1ccc(S(=O)(=O)Nc2cccc3c2O[C@@H](CN(C)Cc2ccc(Oc4ccccc4)cc2)[C@@H](C)CN([C@@H](C)CO)C3=O)cc1 | inconclusive: 65.6%
66 | COC(=O)C(C)NC(=O)C(C)NC(=O)OCc1ccccc1 (stereo not drawn) | inconclusive: 97.4%
67 | CO[C@@H]1CN(C)C(=O)c2ccc(NC(=O)Cc3ccccc3)cc2OC[C@@H](C)N(CC2CC2)C[C@@H]1C | inactive: -29.8%
68 | CC(CCc1ccccc1)NC(=O)c1ccc(C(=O)NC(C)CCc2ccccc2)cc1 (stereo not drawn) | inconclusive: 67.9%
69 | Cc1c(Cl)cccc1N=Cc1ccc([N+](=O)[O-])s1 | inconclusive: 69.7%
70 | O=S1(=O)N=C(Nc2nc3c(s2)CCCC3)c2ccccc21 | inconclusive: 75.3%
71 | CCCCN1C(=O)/C(=C2\SC(N3CCCCC3)=NC2=O)c2ccccc21 | inconclusive: 69.6%
72 | O=C(c1cccn2c(=O)c3ccccc3nc12)N1CCN(Cc2ccc3c(c2)OCO3)CC1 | inconclusive: 70.8%
73 | COc1ccc(S(=O)(=O)Nc2ccc3c(c2)CC(=O)N([C@@H](C)CO)C[C@@H](C)[C@H](CN(C)Cc2ccc(C(F)(F)F)cc2)O3)cc1 | active: 75.6%
